The record followed here is PubChem BioAssay (NCI).

A structure can be active in one record and inactive in another.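 Cells were grown in 96-well plates and exposed to the test compound at a single concentration for 48 hours; results are reported as percent growth, with values below 10 considered active.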 For part of its entries the source gives two or more results. This is not the full list of results. An entry can have further records. The screen tested this drug many times, at its own concentration, as given; each value is one run. Brackets with × stand for listed records that agree.

The test system of test [1] is MALME-3M melanoma. The experiment in a line: NCI-60 one-dose screen, 48 h (100 = growth as untreated, 0 = no growth, -100 = all killed). The settings on record: 2.5 mM.
In test [2] the test system is MDA-MB-231 breast. Described as above. The settings on record: 2.5 mM.

With `O=c1[nH]cc(F)c(=O)[nH]1`, the growth result in test [1] (runs of 1993) is “inactive: 30.6, 17.8, 33.1, 10.1, 29.6, 15, 10.6, 19.3, 16.6, 18.2, 21.9, 14, 15.7, 30.5, 24.6, 31.9, 17.3, 31.8, 11.3, 35.5, 24.5, 43.7, 25.1, 23.1, 77.3, 96.2, 37.1, 14.1, 39, 13.6, 20.2, 10.7, 49.2, 14.7% and active: 5.13, -5.13, -7.11, 0.744, 6.76, 6.6, -21.2, 7.43, 4.69, 5.96, 1.92, 5.87%”; in test [1] (runs of 1994) it was “inactive: 31.5, 22.1, 30, 24.7, 35.3, 23.4, 26.3, 36.9, 26.4, 31.8, 34.8, 15.1, 16.9, 28.4, 31.6, 72, 31.1, 36.3, 29.9, 47.4, 28.8, 46, 27.2, 16.2% and active: 9.16, 8.95, -18.3, -2.5, 1.85, -1.15, 2.8, 4.84%”; in test [1] (runs of 1995) it was “inactive: 23.1, 21.3 (2×), 43.2, 33.6, 14.5, 27.9, 19.9, 28.5, 35.9, 30.2, 17.5, 30, 33.5, 27.2, 50.4, 28, 22.9, 34.9 (2×), 12.5, 25.6, 31.1, 40.1, 16.5, 30.3, 41.6, 12.4, 35.4, 16.2, 40, 13.6, 36.2, 32.6% and active: -1.51, 5.63, -8.27, -14, 5.97, 1.39%”; in test [1] (runs of 1996), “inactive: 25.7, 13.1, 12.8, 44.5, 30.8, 20.1, 35.8, 20.9, 28.3, 24.5, 27.5, 32.9, 45.7, 25.3, 17.1, 35.3, 27.3, 10.8, 34.7, 15.3 (2×), 18.9, 24.4, 29.7, 28.5, 59.3, 38.6, 49.7, 57.3, 49.4% and active: -1.06, 5.89, -16.6, -0.0896, 2.95, 1.78, 1.97, -1.34, -0.194, -16.7%”; in test [1] (runs of 1997), “inactive: 22, 52.9, 51.1, 33.3, 60.6, 14.3, 44.5, 21.2, 31.1, 36.3, 19.5, 29.8 (2×), 27.7, 41.7, 31.8, 15.5, 18.1, 27.1, 26.8, 22.7, 15, 28.3, 18, 17.1, 47.8, 21.5% and active: -2.94, 7.3, 9.61, -10, 8.72, 3.39, -3.04%”; in test [1] (runs of 1998), “inactive: 26.8, 29.2, 26.3, 47.4, 51.4, 50.3, 18.2, 25.5, 17.8, 31.4, 40.3, 24.6, 38.9, 32.9% and active: 0.18, 8.97, 9.27, 0.889, 9.76, -4.87%”. Further, the growth result in test [1] (runs of 1999) is “inactive: 69.5%, 18.5%, 26.9% and active: -6.02, -18.2, -10.7, -100, -87.7, -96.9, -71.3, -5.62, -54.8%”; in test [1] (runs of 2000), “active: -26.7%, -86.5%”; in test [2] (runs of 1993), “inactive: 28.3, 34.8, 16.1, 37.3, 27.2, 41.6, 44.2, 46.3, 30.6, 25.2, 52.2, 61.1, 31.7, 51.2, 50.6, 12.1 (2×), 44.6, 31.4, 47.1, 39.6, 15, 12.8, 27.7, 46.2, 29.7, 43.6, 41.3, 21.6, 17.5, 36.5, 17.4, 28.7, 47.6, 20.2, 73.4, 25.9, 45, 44.9, 39.3, 21, 36, 31.2, 46.5, 35.5%”; in test [2] (runs of 1994) it was “inactive: 50.3, 21.6, 45.4 (2×), 63.9, 37.1, 50.2 (2×), 44.4, 40.2, 58.2, 40.8, 17.5, 24.2, 74.9, 66.2, 63.1, 59.8, 42.8, 56.6, 32.8, 27.9, 23, 64.1, 29.6, 44.7, 47.5, 35.4, 49.1, 10.1, 15.4, 41.2%”; in test [2] (runs of 1995), “inactive: 76.3, 58.1, 20.6, 26.8, 73.3, 29.4, 40.1, 24, 63.4 (2×), 21.5, 58.2, 71.3, 70.5, 43.4 (3×), 35.6, 57.3, 57.6, 46.2, 69.8, 63.1, 43.8, 47.2, 17.7, 42.6 (2×), 29, 27.6, 49.7, 55.5, 56.5, 44.1, 55.8% and active: -24.6, -7.77, -27.5, -47.7, 5.7%”; in test [2] (runs of 1996), “inactive: 45, 46, 63.7, 79.3, 44.4, 34.3, 15.3, 42.9, 44.6, 23.9, 60.3 (2×), 62.2, 42.4, 38.6, 24.7, 37.4, 61.2 (2×), 53, 46.4, 65.5, 71.9, 69.7, 61.1, 39.3, 17.1, 47.9, 37.5, 56.8, 48.9, 101, 47.1, 83, 22.4, 38.3, 27.4, 54.7, 53.9, 64, 41.3, 39, 59.1, 49.2, 31.7, 16.9, 39.9, 50.6, 33, 72.9, 46.6, 49.1, 58% and active: 0.23, 3.88, -99.6, -26.4, -51, -3.61%”. Also, the growth result in test [2] (runs of 1997) was “inactive: 37.6, 54.4, 49.3, 43.3, 28.8, 41.3, 43.8 (2×), 36.1, 16.3, 51.8, 61.6, 36.3, 93.1, 77.1, 26.9, 63.2, 63, 73.4, 38.6, 48.6, 82.9, 43, 61.8, 41.5 (2×), 36, 46.2, 42.3 (2×), 62.9, 17, 39.4, 51.2, 61.9, 42, 33, 51.7% and active: -28.2, 7.87, 7.36, -11.2%”; in test [2] (runs of 1998), “inactive: 28 (2×), 20, 57.6, 59.2, 46.4, 55.3, 50.8, 55.4, 68.1, 30.8, 35.2, 38.1, 53.7, 67.7, 50.2, 17.8, 60.4, 59.4, 23.1, 41.2, 50.9% and active: -32.2%, -15.4%”; in test [2] (runs of 1999) it was “active: -28.7, -10.9, 4.63, -9.08, 5.18, 0.442, 1.29, -26.6, -4.88% and inactive: 53.2, 41.3, 21.1, 33.6%”.
